Reference: PubChem BioAssay AID1845210 (Molecular Pharmacology Branch, DTP, NCI, 2023)
Not every entry of the source has a single result; some have several. The other results are left out here. The source may hold further records. The values listed for one entry are repeats across runs, samples, wells, individuals or studies. Counts like (3×) count equal records among those shown.

System: NCI-H226 complex tumor spheroids, viability
Assay: Anticancer human tumor NCI-H226 cell line growth inhibition;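 note: spheroids exposed to compound for 7 days; 100% = DMSO vehicle control viability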
Details: stronger effect = lower value
From the text: Multicellular complex tumor spheroid response to DNA repair inhibitors in combination with DNA-damaging drugs
This study explores the anticancer activities of DNA-damaging drugs and inhibitors of DNA damage repair, both as single agents and in combinations. Complex tumor spheroids comprised of malignant cells, endothelial cells and mesenchymal stem cells served as an in vitro model for human solid tumors. This model system incorporates physiologically relevant features and patient-derived or established malignant cell lines with clinically relevant genetic alterations from many tumor types. Twenty-six patient-derived or established malignant cell lines were evaluated representing sarcoma, melanoma, small cell lung cancer (SCLC), non-small cell lung cancer (NSCLC), as well as bladder, ovarian and pancreatic cancers. The concentration ranges selected for each drug and investigational agent were based upon clinically achievable concentrations if the clinical Cmax of the agent was known.
Compounds. The drugs and compounds olaparib (NSC753686), talazoparib (NSC767125), berzosertib (NSC777718), elimusertib (NSC800525), nedisertib (NSC802822), VX-984 (NSC792969), AZD-1390 (NSC803789), temozolomide (NSC362856), topotecan (NSC609699), trabectedin (NSC813783), staurosporine (NSC755774), and gemcitabine (NSC613327) were obtained from the National Cancer Institute (NCI) Developmental Therapeutics Program Chemical Repository. The FDA-approved anticancer drug set is available from the Developmental Therapeutics Program at https://dtp.cancer.gov/organization/dscb/obtaining/available_plates.htm. […] The stock solutions were prepared in dimethyl sulfoxide (DMSO, Sigma-Aldrich, St. Louis, MO, cat. D2650) at 400-fold the tested concentration and stored at -70 degrees C. Prior to their use, the stock solutions were diluted in fresh medium and the final DMSO concentration in the assay was 0.25% (v/v). All drugs and investigational agents were tested over a range starting from a high concentration at or near the clinical Cmax and decreasing in half-log increments. If the clinical Cmax for an agent had not been determined, the highest concentration tested was 10 microM.
Cell Lines. The patient-derived cancer cell (PDC) lines: 156681-154-R-J1-PDC, 283228-195-R-J1-PDC, 287954-098-R-J1-PDC, 292921-168-R-J2-PDC, 349418-098-R-PDC, 425362-245-T-J1-PDC, 556581-035-R-J1-PDC, and BL0293-F563-PDC were received from the NCI Patient-Derived Models Repository (PDMR, https://pdmr.cancer.gov). The established cell lines HS-SY-2 (RRID:CVCL_8719), MPNST, and SYO-1 (RRID:CVCL_7146) were obtained from the Sloan Kettering Institute. The alveolar soft parts sarcoma cell line ASPS-1 (RRID:CVCL_S738) was established at the NCI and grown from internal seed stocks. The following established cell lines were purchased from the American Type Culture Collection (ATCC, Manassas, VA): G-401 (ATCC, cat. CRL-1441, RRID:CVCL_0270), SW982 (ATCC, cat. HTB-93, RRID:CVCL_1734), VA-ES-BJ (ATCC, cat. CRL-2138, RRID:CVCL_1785), NCI-H719 (ATCC, cat. CRL-5837, RRID:CVCL_1582), NCI-H196 (ATCC, cat. CRL-5823, RRID:CVCL_1509), NCI-H841 (ATCC, cat. CRL-5845, RRID:CVCL_1595), NCI-H1618 (ATCC, cat. CRL-5879, RRID:CVCL_1480), NCI-H1876 (ATCC, cat. CRL-5902, RRID:CVCL_1503), DMS 114 (ATCC, cat. CRL-2066; RRID:CVCL_1174), NCI-H211 (ATCC, cat. CRL-5824; RRID:CVCL_1529), and SW 1271 (ATCC, cat. CRL-2177, RRID:CVCL_1716). The small cell lung cancer cell line COR-L88 was purchased from Sigma-Aldrich (cat. 92031917-1VL, RRID:CVCL_1141). The non-small cell lung cancer cell lines NCI-H226 (RRID:CVCL_1544) and NCI-H322M (RRID:CVCL_1557) were established at the NCI and grown from internal seed stocks. Pooled donor human umbilical vein endothelial cells (HUVEC, Lonza, cat. CC-2519) and human mesenchymal stem cells (hMSC, Lonza, cat. PT-2501) were purchased from Lonza (Walkersville, MD).
Cell Culture. All cells were maintained in an incubator at 37 degrees C and 5% CO2 with 95% humidity. […]

COc1cc2c(cc1O)CCNC21CSC2c3c(OC(C)=O)c(C)c4c(c3C(COC1=O)N1C(O)C3Cc5cc(C)c(OC)c(O)c5C(C21)N3C)OCO4 (stereo unspecified)
viability, T/C (compound 94.9 pM): 107 (2×), 109, 77.1, 87.4, 101, 116, 118, 110% | viability, T/C (compound alone 0.0003 µM): 114 (2×), 123, 93, 124, 117 (2×), 112, 134, 121% | viability, T/C (compound alone 0.000949 µM): 119, 83.4, 88.5, 113 (2×), 107 (2×), 106, 118, 103%

CC(C)n1c(=O)n(C)c2cnc3cc(F)c(-c4ccc(OCCCN5CCCCC5)nc4)cc3c21
viability, T/C (compound alone 10 µM): 4.45%, 35%, 51.2%

Cn1nnc2c(C(N)=O)ncn2c1=O
viability, T/C (compound alone 1 µM): 96.8, 102, 99.6, 114, 104, 98.3, 109, 112, 107, 126%

CC[C@@]1(O)C(=O)OCc2c1cc1n(c2=O)Cc2cc3c(CN(C)C)c(O)ccc3nc2-1
viability, T/C (compound alone 0.00949 µM): 99.9, 96.9, 95.8, 81.4, 103, 77.1, 92.3, 89.4, 102, 92.7%
